In patent US12312292B2, “Long chain alkyl esteramine lipid compound, preparation method therefor and application thereof in nucleic acid delivery” (RinuaGene Biotechnology Co., Ltd., priority 2022, dated 2025):
At least one structure is not confirmed: it was looked up by name or label, or the drawing left a doubt.

How the values were obtained:
[1] = mRNA-LNP encapsulation: particle size, PDI and encapsulation rate of LNP; format: physicochemical; conditions: for PDI / Particle size (nm): LNP of compound:cholesterol:DSPC:DMG-PEG2000=50:38.5:10:1.5 with mRNA, Malvern ZetaSizer; for Encapsulation rate: LNP-encapsulated mRNA, Ribogreen kit
Protocol: The mRNA stock solution was dispersed in 20 mM acetic acid solution (pH 5.0) to a final concentration of 200 μg/mL (aqueous phase). A fat mixture (oil phase) was obtained by mixing under a molar ratio of the exemplary compound:cholesterol:DSPC:DMG-PEG2000=50:38.5:10:1.5. The flow rate of the aqueous phase and the oil phase was controlled by T mixed flow, and the mRNA and lipid mixture were mixed under the volume ratio of 3:1 to obtain LNP-encapsulated mRNA. The encapsulated LNP was diluted 10-fold with buffer, then concentrated by ultrafiltration, and the dilute was displaced, and finally the LNP was concentrated to mRNA being 200 µg/mL, and the pH of the LNP was adjusted to about 7-8. Finally, the Ribogreen kit and 10% OTG were used as demulsifiers to detect the total content of mRNA and the content of […], and the encapsulation rate of LNP was calculated. The LNP final product was diluted 10-fold with diluent, added 1 mL into a particle size cell, and placed on the Malvern ZetaSizer instrument to detect the particle size and PDI of LNP.

hEPO = test: Pharmacokinetic study: serum hEPO after LNP containing mRNA encoding hEPO; format: in vivo, BALB/C mice; conditions: 5 μg mRNA encoding hEPO via tail vein, serum at 6 h, ELISA; compared with compound SM102 and compound 261 (CN110520409A) (FIG. 5)

| Compound | PDI [1] | Particle size (nm) [1] | Encapsulation rate [1] | Drug delivery efficiency (serum hEPO concentration) (hEPO) |
| --- | --- | --- | --- | --- |
| CCCCCCCCCCCOC(=O)CCCCCN(CCCCCCCC(=O)OC(CCCCCCCC)CCCCCCCC)CC(C)(C)CO [Example 10] | 0.1836 | 98.2 nm | 57.14% | – |
| CCCCCCCCCCCOC(=O)CCCCCN(CCCCCCCC(=O)OC(CCCCCCCC)CCCCCCCC)CC1(CO)CCC1 [Example 15] | 0.368 | 95.7 nm | 60.43% | – |
| CCCCCCCCCCCOC(=O)CCCCCN(CCCCCCCC(=O)OC(CCCCCCCC)CCCCCCCC)CC1(CO)CC1 [Example 12] | 0.2337 | 78.07 nm | 81.12% | – |
| CCCCCCCCCCCOC(=O)CCCCCN(CCCCCCCCCO)CCCCCCCC(=O)OC(CCCCCCCC)CCCCCCCC [Example 5] | 0.0865 | 70.67 nm | 91% | – |
| CCCCCCCCCCCOC(=O)CCCCCN(CCCCCCCCCCO)CCCCCCCC(=O)OC(CCCCCCCC)CCCCCCCC [Example 6] | 0.0992 | 70.88 nm | 94% | – |
| CCCCCCCCCCCOC(=O)CCCCCN(CCCCCCCCCCCCO)CCCCCCCC(=O)OC(CCCCCCCC)CCCCCCCC [Example 7] | 0.0987 | 72.73 nm | 92% | – |
| CCCCCCCCCCCOC(=O)CCCCCN(CCCCCCCC(=O)OC(CCCCCCCC)CCCCCCCC)CC(F)(F)CO [Example 11] | 0.2522 | 98.41 nm | 57.25% | – |
| CCCCCCCCCCCOC(=O)CCCCCN(CCCCCCCO)CCCCCCCC(=O)OC(CCCCCCCC)CCCCCCCC [Example 3] | 0.0835 | 71.55 nm | 94% | – |
| CCCCCCCCCCCOC(=O)CCCCCN(CCCCCCCC(=O)OC(CCCCCCCC)CCCCCCCC)CC1(O)CC1 [Example 13] | 0.149 | 68.87 nm | 89.94% | – |
| CCCCCCCCCCCOC(=O)CCCCCN(CCCCCCCCO)CCCCCCCC(=O)OC(CCCCCCCC)CCCCCCCC [Example 4] | 0.0816 | 70.42 nm | 93% | – |
| CCCCCCCCCCCOC(=O)CCCCCN(CCCCCCCC(=O)OC(CCCCCCCC)CCCCCCCC)C1(CO)CC1 [Example 14] | 0.145 | 68.31 nm | 88.12% | – |
| CCCCCCCCCCCOC(=O)CCCCCN(CCCCCCO)CCCCCCCC(=O)OC(CCCCCCCC)CCCCCCCC [Example 2] | 0.0862 | 72.02 nm | 96% | significantly more efficient |
| CCCCCCCCCCCOC(=O)CCCCCN(CCCCCO)CCCCCCCC(=O)OC(CCCCCCCC)CCCCCCCC [Example 1] | 0.0892 | 72.68 nm | 96% | – |
| CCCCCCCCCCCOC(=O)CCCCCN(CCCCCCCC(=O)OC(CCCCCCCC)CCCCCCCC)C(C)CCCO (stereo not shown) [Example 8] | 0.2303 | 94.2 nm | 54.55% | – |
| CCCCCCCCCCCOC(=O)CCCCCN(CCCCCCCC(=O)OC(CCCCCCCC)CCCCCCCC)C(C)CCO (stereo not shown) [Example 9] | 0.1102 | 72.26 nm | 97.55% | – |
